Read counts are not given, so values of variants with three or more changes are uncertain.
B1: LINE1-mini (parent)
chain: GGCAGAGCUCAACACAGCGUGGCAAAGUGGCUGUGGCUAGACUGCC

Variants of: B1
Test: self-cleavage, relative activity (ratio to wild type); higher = more cleavage; in vitro, sequencing; the parent is a self-cleaving ribozyme

Variant | self-cleavage
G2C G27U G33C C37A | 0.02
G2C G27U U43G | 0
G2C G29A G35A C42A | 0.14
G2C G29U C37U C46A | 0.06
G2C G29U G35C | 0.1
G2C G30U U38A A41U | 0.27
G2C G30U U38G | 0.37
G2C G33A C42U C46G | 0.08
G2C G33U A41C | 0.05
G2C G35U G44U | 0.11
G2C G36A A39G | 0.95
G2C G36U C42G | 0.02
G2C U9A A12U G35A | 0.2
G2C U9A A16C U38A | 0.03
G2C U9A A41U | 0.01
G2C U9A C10G A14C C15A C31A G36C | 0.01
G2C U9A C13U C37A G44A | 0.08
G2C U9A C13U G29A | 0.02
G2C U9A C18A G36A A41U | 0.03
G2C U9A C23A C31A | 0.05
G2C U9A C37G C42A | 0.09
G2C U9A C42U | 0.01
G2C U9A G21A U28A C31A | 0.47
G2C U9A G27U | 0.25

Variant | self-cleavage
G2C U9A G36A A39C C42U | 0.38
G2C U9C A11G G22U | 0.06
G2C U9C A11G G22U G29A U38C A41G | 0
G2C U9C A11U G19C C23G G30U | 0
G2C U9C A12U U34G | 0.01
G2C U9C G19C G33A C37A A39C G44A | 0.01
G2C U9C G21A | 0.07
G2C U9G A14U | 0.05
G2C U9G C15A A25C | 0.03
G2C U9G C15A U28G G36C A39C | 0.02
G2C U9G C31A | 0.2
G2C U9G C45U C46U | 0.22
G2C U9G G19A | 0.22
G2C U9G G40A C45A | 0.05
G2C U20A A24C G36U G44C | 0.02
G2C U20A A39U | 0.02
G2C U20A C45A | 0.02
G2C U20A G29C | 0.06
G2C U20A G36A U38C G44A | 0.02
G2C U20A U28C G29C | 0.09
G2C U20C A24C C31A G44A | 0.03
G2C U20C C23A G29A C42G G44C | 0.13
G2C U20C C31A | 0.02
G2C U20C C31G | 0

Variant | self-cleavage
G2C U20C G29C C42G | 0
G2C U20G C31A | 0.02
G2C U28G C31A G40U | 0.01
G2C U28G U34A | 0.03
G2C U32A G33U G36C U38G G40U | 0.11
G2C U32A U38A | 0.01
G2C U34A A41G | 0.09
G2C U34C C46A | 0.01
G2C U34C G36A | 0.14
G2C U34C G36C | 0.06
G2C U34G G36A G40A | 0.1
G2C U34G U38G | 0.04
G2C U43G C45U | 0.03
G2U A4C A16U A39U G44C C46U | 0
G2U A4C C10U A14C U38A C42A | 0.02
G2U A4C C15U C46A | 0.01
G2U A4C C37A | 0.15
G2U A4C C42A | 0.01
G2U A4C G17C G30A A39C | 0.02
G2U A4C G19C C31U G36U U43G | 0
G2U A4C G21C | 0.08
G2U A4C U9C A11G A14C G19C C23A G30A | 0.01
G2U A4C U28G | 0.03
G2U A4G A6C U9G G19C A25C G30U | 0.12

Variant | self-cleavage
G2U A4G A11G A26C G33A G35U | 0
G2U A4G A26C G30C C37U U38G | 0
G2U A4G C8U U9A A12C A24G | 0.04
G2U A4G C15A C18G G36C | 0.07
G2U A4G C23G C37U | 0.06
G2U A4G C37U | 0.96
G2U A4G G17A U20A | 0.05
G2U A4G G19U A26G G33U | 0.03
G2U A4U A6G G7A G19A | 0.06
G2U A4U A11G A14U C45U | 0.01
G2U A4U A12C | 0.01
G2U A4U A12G A25C U32G A41C | 0.04
G2U A4U C10A A25G U38G A41G | 0.01
G2U A4U C18U A25U | 0.27
G2U A4U C18U G22C G27A | 0.24
G2U A4U C23A G30U U34G | 0.02
G2U A4U C31U U32C | 0.04
G2U A4U G21U C37U | 0.05
G2U A4U G21U U34G | 0.02
G2U A4U G29A | 0.03
G2U A6C A26C G40C U43A C46A | 0.01
G2U A6C C8G U28C | 0.02
G2U A6C C10A | 0.01
G2U A6C C18U C23U | 0.02

Variant | self-cleavage
G2U A6C C23A | 0.04
G2U A6C G7U A24G C42U G44A | 0.08
G2U A6C G17U | 0.03
G2U A6C G21U | 0.05
G2U A6C G30A A41U U43G | 0.02
G2U A6C U20A G22C | 0.02
G2U A6G C8U | 0.05
G2U A6G C10U A16C U28G G44U | 0.01
G2U A6G C10U G17A C31G G36A G44U | 0.01
G2U A6G C18U C45U | 0.01
G2U A6G C18U G19U | 0.11
G2U A6G C37A | 0.05
G2U A6G G7A A26U G30C | 0.04
G2U A6G G17C U34G | 0.03
G2U A6G U20C G33U | 0.02
G2U A6U A12G C18U A39C | 0.07
G2U A6U C23G C37G C46G | 0.1
G2U A6U G7A G29U | 0.03
G2U A6U G19C U32A G40C | 0.16
G2U A6U G21A C42U C46U | 0.06
G2U A6U G36A | 0.21
G2U A6U U9A C10G G19U A25C G27U G30A U32A | 0
G2U A6U U20A C31A | 0.06
G2U A11C A12U | 0.01

Variant | self-cleavage
G2U A11C C15G G36A U43A | 0
G2U A11C C23A U38G | 0
G2U A11C G19U C45A | 0.01
G2U A11C G30A G33U U43C C46U | 0.01
G2U A11C U20A G35U | 0.01
G2U A11C U28C C46G | 0.01
G2U A11C U28G G33C U34G G36U C45U | 0.01
G2U A11C U43A | 0.15
G2U A11G A26C C31A G44C | 0
G2U A11G C15U U20G G30U U34G G44A | 0.01
G2U A11G G22U A39C A41U C42A | 0
G2U A11G G30A | 0.01
G2U A11G U28C | 0.01
G2U A11U C13A G19C A24C | 0
G2U A11U C15U C23A A26G C31U A41U | 0
G2U A11U G21A | 0.02
G2U A11U G22A | 0.01
G2U A11U G22C | 0.03
G2U A11U G27U | 0
G2U A11U G35U C42A | 0
G2U A11U U20C A26U U28A C31G | 0.01
G2U A11U U20G U32C G44U | 0.03
G2U A11U U28C G33A C37U | 0.02
G2U A12C A14C C37U | 0.02

Variant | self-cleavage
G2U A12C A16C G29U G35C C46U | 0
G2U A12C A16G C23G | 0.01
G2U A12C A25U A39C C46U | 0
G2U A12C A26G | 0.03
G2U A12C A39G | 0.02
G2U A12C C13A A25C C42G | 0.02
G2U A12C C13A U28G G33U | 0.01
G2U A12C C13U A39U C46A | 0.01
G2U A12C C15A C23U G40C | 0.02
G2U A12C G19A G22A C31G G36A A39U | 0.01
G2U A12C G21A | 0.02
G2U A12G A25U | 0.02
G2U A12G A39G C46G | 0.01
G2U A12G C13G G29U U38C | 0.01
G2U A12G C37G G44U | 0.1
G2U A12G C45G | 0.01
G2U A12G G17A G22U U28A | 0
G2U A12G G17C U20G | 0.01
G2U A12G G35U G44U | 0.05
G2U A12U A14C C18A U28C G29C C31A C42G | 0
G2U A12U A14G C45G | 0.01
G2U A12U A14U U28G G36U A39G A41G | 0.03
G2U A12U A16C A24G G29A G33A | 0.01
